As usually defined, the inhibition is the change of the read-out against control, counted positive when it falls.

Structures are written as SMILES. Among all 340,000 compounds or so, about 6,900 (2%) were called active. Rule as the data show it: active = inhibition above about 30%; inactive = below that, where a call was filed. The entries are a selection whose mix differs from that of the whole data set. The source gives no active or inactive call for entries shown without one.

This test addresses D(2) dopamine receptor (Homo sapiens) (UniProt P14416). Put plainly: HTS Assay for Allosteric Antagonists of the Human D2 Dopamine Receptor: Primary Screen for Antagonists. Also: 0% is about no effect. To be noted: HEK293 TREx D2 cells, calcium flux, dopamine EC80; at 10 µM; stronger effect = higher value. The procedure, abridged: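 Overnight-induced (tetracycline, 30 C) HEK293 T-REx cells carrying force-coupled D2 receive a no-wash calcium dye, then compound, then EC80 dopamine at 180 s; signals are read kinetically throughout.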
Chain of UniProt P14416 (P14416 whole entry, looked up): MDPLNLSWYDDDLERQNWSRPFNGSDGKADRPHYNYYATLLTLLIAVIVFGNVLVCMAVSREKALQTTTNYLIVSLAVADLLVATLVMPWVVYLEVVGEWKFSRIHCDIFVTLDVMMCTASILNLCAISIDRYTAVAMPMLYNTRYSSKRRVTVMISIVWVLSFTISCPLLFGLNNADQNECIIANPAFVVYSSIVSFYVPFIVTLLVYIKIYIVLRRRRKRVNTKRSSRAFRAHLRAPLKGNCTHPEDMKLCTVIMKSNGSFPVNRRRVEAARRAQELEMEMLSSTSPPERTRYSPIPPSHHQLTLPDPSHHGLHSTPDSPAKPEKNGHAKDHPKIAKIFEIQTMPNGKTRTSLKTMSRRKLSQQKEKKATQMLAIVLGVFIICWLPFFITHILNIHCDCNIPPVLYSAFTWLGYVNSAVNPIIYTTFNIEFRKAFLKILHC
For `COc1ccc(CN(C(=O)Nc2cc(C)ccc2C)C2CCN(C(C)=O)CC2)cc1`, the inhibition turned out to be 2.89%. In the case of `CCOc1cccc(CC(=O)NCc2ccc3c(c2)CCN3C(=O)c2cccc(C)c2)c1OCC`, the inhibition was -27.1%. Then `COc1cc(NS(=O)(=O)c2ccc(NC(=O)COc3ccc(Cl)cc3Cl)cc2)nc(OC)n1`, with 3.36%; and `COc1cccc(C2C(C(N)=O)=C(C)Nc3nc(CCCO)nn32)c1` (stereo unspecified), with 6.69%. Regarding `COc1cccc(CNC(=O)Cc2c(C)c3cc4c(C)coc4cc3oc2=O)c1`, the inhibition amounted to 3.91%. In the case of `Cc1cc(C)cc(NC(=O)CSc2nccn2C2CCCC2)c1`, the inhibition was -11.9%. For `CCc1ccc(NC(=O)N2CCN(c3nnc(C)c4c(C)n(-c5ccc(Cl)cc5)nc34)CC2)cc1` the value was -11.8%. For the molecule `CCOc1c(Cl)cc(C(=O)NCCN2CCCCC2)cc1Cl`, the inhibition was active: 33.7%. Take `COc1cccc(NC(=O)c2csc3c2CCCCC3)c1`: the inhibition turned out to be 1.75%. Then `O=C(NCc1ccccc1Cl)c1cc(-c2ccccc2)n[nH]1`, with 5.1%; and `COCCn1c(CCC(=O)Nc2ccc(OC)c(OC)c2)nc2cccnc21`, with 2.63%. Consider `O=C(Cn1c2ncccc2c(=O)n1-c1ccccc1)NCc1ccccc1`, for which the inhibition stood at 6.88%. Turning to `O=C(CS(=O)(=O)c1nc(-c2ccc(Cl)cc2)cn1-c1ccccc1)Nc1cccc(Cl)c1`, the inhibition turned out to be 15.1%. Then `Cc1nc(-c2ccccc2)sc1-c1ccc(SCC(=O)Nc2ccccc2)nn1`, with 11.3%.

Regarding `Cc1oc(-c2cccc(Br)c2)nc1CN1CCC(C(=O)NCc2ccccc2)CC1`, the inhibition amounted to 10%.

For the molecule `Cc1ccc(NC(=O)c2ccc(F)c(S(=O)(=O)NCCc3ccccc3)c2)cc1F`, the inhibition turned out to be 1.67%.

On to `O=C(c1ccc2c(c1)N(Cc1ccccc1F)C(=O)c1ccccc1S2=O)N1CCC(Cc2ccccc2)CC1` (stereo unspecified), for which the inhibition is -3.98%.

As to `Brc1ccc(CN2CCc3nc(Nc4ccccc4)ncc3C2)s1`, the inhibition was 3.61%.

As to `COc1ccc(OC)c(CNC(=O)c2cc3c(=O)oc4ccc(C)cc4c3s2)c1`, the inhibition was -1.75%. As to `Cc1ccc(Cl)cc1NC(=O)Cn1nnc2sc3c(c2c1=O)CCC(C(C)(C)C)C3` (stereo unspecified), the inhibition was 10.1%. Take `COc1ccc(CCNc2ncnc3c2cnn3-c2ccc(F)cc2)cc1`: the inhibition was 5.2%. For `CCOC(=O)c1cc(-c2ccc(F)cc2)n(CCC(=O)Nc2nc3cc(C)c(C)cc3s2)c1C` the value was -2.56%; for `CCOc1ccc(-n2c(-c3ccc(Br)cc3)cc3c2CC(C)(C)CC3=O)cc1`, -8.06%.

Take `Cc1nnc2c3ccccc3nc(Nc3ccc(F)cc3Cl)n12`: the inhibition amounted to 8.06%. Take `Cc1nc(N2CCCC2)ncc1C(=O)Nc1ccc(OC(F)(F)F)cc1`: the inhibition was 5.35%. Take `COc1ccc(OCc2ccc(-c3nc(C#N)c(NCc4ccc(F)cc4)o3)o2)cc1`: the inhibition was -17.8%.

Take `OCCN1CCN(c2ncnc3c2cnn3-c2cccc(Cl)c2)CC1`: the inhibition is 18.2%. On to `COc1cc(OC)cc(-n2c(=O)c3sccc3n(Cc3cc(=O)n4c(C)cccc4n3)c2=O)c1`, for which the inhibition turned out to be 13.7%. Regarding `COc1cccc(CNC(=O)Nc2cn(CC(C)C)c(=O)c3ccccc23)c1`, the inhibition stood at 11%.

For the molecule `COc1ccc(-c2oc3ncn4nc(-c5ccccc5OC)nc4c3c2-c2ccc(OC)cc2)cc1`, the inhibition came to 4.02%.

For the molecule `Cc1cc2nn(-c3ccc(F)cc3)nc2cc1NC(=O)c1ccc(C(C)(C)C)cc1`, the inhibition amounted to 6.61%.

For the molecule `CCCOc1ccc(C2C(=O)N(C3CCCCCC3)CC(=O)N2C(C)C)cc1OC` (stereo unspecified), the inhibition is -13.9%.

`S=c1[nH]nc(COc2ccccc2)n1/N=C/c1ccccc1Br`: the inhibition is active: 38.1%. For `COc1cc(CN(C(=O)c2ccccc2)c2ccccn2)cc(OC)c1OC`, the inhibition turned out to be 13.6%. For `COc1ccc2c(c1)c(=O)c(C(=O)c1ccc(F)cc1)cn2CC(=O)Nc1ccc2c(c1)OCCO2` the value was 0.0882%; for `COc1ccc(-c2cn3cccnc3n2)cc1NC(=O)c1ccccc1C(F)(F)F`, 10.3%; for `O=C(CC(c1ccccc1)c1cc(Br)ccc1O)NCCN1CCOCC1` (stereo unspecified), active: 77%. `Cn1c(CNC(=O)CSc2nc(-c3ccccc3F)nc3cc(=O)[nH]n23)nc2ccccc21`: the inhibition was -2.37%. Regarding `CC(C)c1ccc(-c2noc(SCC(=O)N3CCN(c4ccccc4F)CC3)n2)cc1`, the inhibition is -6%. On to `O=C(NCc1cccs1)c1ccc2c(c1)sc1nc(-c3ccccc3)cn12`, for which the inhibition was -27.9%.

Take `Cc1c(C(=O)N2CCC(C(=O)Nc3ccc(F)c(Cl)c3)CC2)sc2nc[nH]c(=O)c12`: the inhibition worked out at 19.1%. Regarding `Cc1ccc(NC(=O)Cn2c(=O)ccc3cc(S(=O)(=O)N4CCCC4)ccc32)cc1C`, the inhibition is -4.47%. As to `COc1ccc(CCNc2ccc(S(=O)(=O)N3CCN(C)CC3)cc2[N+](=O)[O-])cc1`, the inhibition is active: 64.7%. Turning to `Cc1cn2c(=O)cc(COC(=O)COc3ccc(C)c(C)c3)nc2s1`, the inhibition is 8.59%. Take `CCCOc1ccc(C(=O)N(Cc2ccc(Cl)cc2)Cc2ccco2)cc1`: the inhibition was -11.1%. In the case of `Cc1ccc(CNC(=O)c2ccc3c(c2)NC(=O)C(CS(=O)(=O)Cc2cccc(C)c2)N3)cc1` (stereo unspecified), the inhibition turned out to be 10.8%. `COc1cc(NC(=O)CCS(=O)(=O)c2ccc(Br)cc2)cc(OC)c1`: the inhibition was -4.22%. Take `CCCCN(C)C(=O)CN1C(=O)c2cccnc2Oc2ccc(Cl)cc21`: the inhibition was -1.04%. Turning to `COc1cc(C(=O)Nc2cc(C)c(O)c(-c3nc4cc(Cl)ccc4o3)c2)cc(OC)c1OC`, the inhibition turned out to be 4.55%. `CCN(CC)C(=O)c1sc2c(c1C)c(=O)n(-c1ccccc1)c(=O)n2CC(=O)N(CC)c1cccc(C)c1`: the inhibition was 5.53%. Regarding `Oc1ccc(C2=NN(c3ccccc3)C(c3ccc(F)cc3)C2)cc1` (stereo unspecified), the inhibition was active: 32.9%. In the case of `CCOC(=O)CSc1nnc(-c2ccc(OC)cc2)o1`, the inhibition was determined as 12.9%. On to `COc1cccc(-c2nc3c(C#N)c[nH]n3c2NC2CCCCC2)c1`, for which the inhibition is -4.25%.

Regarding `COc1ccc(-c2csc3ncnc(Nc4ccc(OC)cc4OC)c23)cc1`, the inhibition is 12.9%. On to `CCc1cccc(NC(=O)Cn2c(=O)n(CC3CCC(C(=O)NC)CC3)c(=O)c3sccc32)c1` (stereo unspecified), for which the inhibition stood at 7.94%. On to `COc1cccc(CNC(=O)CN(c2ccc(C)cc2)S(=O)(=O)N(C)C)c1OC`, for which the inhibition is -5.14%.

Turning to `COc1cccc(CNC(=O)Cn2c(=O)cc(C)c3c(C)nn(C)c32)c1OC`, the inhibition is 15.6%. In the case of `O=C(NC1CCCCC1)c1ccc2c(c1)N(Cc1ccc(F)cc1)C(=O)c1ccccc1S2(=O)=O`, the inhibition is -0.362%. Turning to `COc1cc(NS(=O)(=O)c2cc(Br)cc3c2N(C(C)=O)C(C)C3)cc(OC)c1` (stereo unspecified), the inhibition was -1.15%. For `N#CC1=C(N)N(c2ccc(Cl)cc2)C2=C(C(=O)CCC2)C1c1cc(CN2CCOCC2)cs1` (stereo unspecified) the value was 2.3%; for `Cc1cccc(N(C)C(=O)C2CCC(CNS(=O)(=O)c3cccc4nsnc34)CC2)c1` (stereo unspecified), -1%.

The record behind these values is PubChem BioAssay AID485344 (National Center for Advancing Translational Sciences (NCATS), 2010).
